# Measured values as given in the supplement of paper PMC8728848.
# The other results are listed elsewhere or left out.
# B1: Epa9 (Candida glabrata), CAGL0A01386g (protein)
# chain: MGSSHHHHHHSSGLVPRGSHMDITPFAHYPRPEGCSSPPNAVSVGLHMDLYNYPYLYVKNPRTGFTNDTDSDADGETDGDSAGGIEGRAGQCWNPEYQDPNFPRYGYKKYGSFGSSDHVNGKISWDHNEFKEGCKPIMARLPTAYNYPAKITFSNFTMVLSGYFKPKSTGLYKFEIHADDFILFNFGSKNAFECCNREESIDNFGPYVAYAMWPNEADQELEVYLFEDSYYPIRLFYNNRDYHSKFMVGFYPPNTEEITYDFDGYLYMLDDTGNECKDSIRYKTVCDD
# Experiments:
# Test in all cases: glycan array binding signal (z-score within array); higher = stronger binding
# Conditions in all cases: glycan notation: IUPAC condensed, linker removed
# [1] = biological target: Fuc(a1-3)[Gal3S(b1-4)]GlcNAc
# In short: (§1)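 From the Consortium for Functional Glycomics database, 3228 arrays were curated, keeping only those whose protein sequence was available. Binding is given as a within-array Z-score averaged across arrays sharing a protein sequence and across linkers. Negative Z-scores can be read as non-binding.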
# [2] = biological target: Fuc(a1-3)[Gal3S(b1-4)]GlcNAc6S
# In short: as §1
# [3] = biological target: Fuc(a1-3)[GalNAc(b1-4)]GlcNAc
# In short: as §1
# [4] = biological target: Fuc(a1-3)[GalNAc(b1-4)]GlcNAc6S
# In short: as §1
# [5] = biological target: Fuc(a1-4)GlcNAc
# In short: as §1
# [6] = biological target: Fuc(b1-3)GlcNAc
# In short: as §1
# [7] = biological target: Gal(a1-2)Gal
# In short: as §1
# [8] = biological target: Gal(a1-3)Gal
# In short: as §1
# [9] = biological target: Gal(a1-3)Gal(b1-3)GlcNAc
# In short: as §1
# [10] = biological target: Gal(a1-3)Gal(b1-3)GlcNAc(b1-2)Man
# In short: as §1
# [11] = biological target: Gal(a1-3)Gal(b1-3)GlcNAc(b1-2)Man(a1-3)[Gal(a1-3)Gal(b1-3)GlcNAc(b1-2)Man(a1-6)]Man(b1-4)GlcNAc(b1-4)GlcNAc
# In short: as §1
# [12] = biological target: Gal(a1-3)Gal(b1-3)GlcNAc(b1-3)GalNAc
# In short: as §1
# [13] = biological target: Gal(a1-3)Gal(b1-3)GlcNAc(b1-6)GalNAc
# In short: as §1
# [14] = biological target: Gal(a1-3)Gal(b1-3)[Fuc(a1-4)]GlcNAc(b1-2)Man(a1-3)[Gal(a1-3)Gal(b1-3)[Fuc(a1-4)]GlcNAc(b1-2)Man(a1-6)]Man(b1-4)GlcNAc(b1-4)GlcNAc
# In short: as §1
# [15] = biological target: Gal(a1-3)Gal(b1-4)Glc
# In short: as §1
# [16] = biological target: Gal(a1-3)Gal(b1-4)GlcNAc
# In short: as §1
# [17] = biological target: Gal(a1-3)Gal(b1-4)GlcNAc(b1-2)Man
# In short: as §1
# [18] = biological target: Gal(a1-3)Gal(b1-4)GlcNAc(b1-2)Man(a1-3)[Gal(a1-3)Gal(b1-4)GlcNAc(b1-2)Man(a1-6)]Man(b1-4)GlcNAc(b1-4)GlcNAc
# In short: as §1
# [19] = biological target: Gal(a1-3)Gal(b1-4)GlcNAc(b1-3)GalNAc
# In short: as §1
# [20] = biological target: Gal(a1-3)Gal(b1-4)GlcNAc(b1-6)GalNAc
# In short: as §1
# [21] = biological target: Gal(a1-3)Gal(b1-4)[Fuc(a1-3)]GlcNAc
# In short: as §1
# [22] = biological target: Gal(a1-3)Gal(b1-4)[Fuc(a1-3)]GlcNAc(b1-2)Man(a1-3)[Gal(a1-3)Gal(b1-4)[Fuc(a1-3)]GlcNAc(b1-2)Man(a1-6)]Man(b1-4)GlcNAc(b1-4)GlcNAc
# In short: as §1
# [23] = biological target: Gal(a1-3)GalNAc
# In short: as §1
# [24] = biological target: Gal(a1-3)[Gal(a1-4)]Gal(b1-4)GlcNAc
# In short: as §1
# [25] = biological target: Gal(a1-4)Gal(b1-3)GlcNAc(b1-2)Man(a1-3)[Gal(a1-4)Gal(b1-3)GlcNAc(b1-2)Man(a1-6)]Man(b1-4)GlcNAc(b1-4)GlcNAc
# In short: as §1
# [26] = biological target: Gal(a1-4)Gal(b1-4)Glc
# In short: as §1
# [27] = biological target: Gal(a1-4)Gal(b1-4)GlcNAc
# In short: as §1
# [28] = biological target: Gal(a1-4)Gal(b1-4)GlcNAc(b1-2)Man(a1-3)[Gal(a1-4)Gal(b1-4)GlcNAc(b1-2)Man(a1-6)]Man(b1-4)GlcNAc(b1-4)GlcNAc
# In short: as §1
# [29] = biological target: Gal(a1-4)Gal(b1-4)GlcNAc(b1-3)Gal(b1-4)Glc
# In short: as §1
# [30] = biological target: Gal(a1-4)GlcNAc
# In short: as §1
# [31] = biological target: Gal(a1-6)Glc
# In short: as §1
# [32] = biological target: Gal(b1-2)Gal
# In short: as §1
# [33] = biological target: Gal(b1-3)Gal
# In short: as §1
# [34] = biological target: Gal(b1-3)Gal(b1-4)GlcNAc
# In short: as §1
# [35] = biological target: Gal(b1-3)GalNAc
# In short: as §1
# [36] = biological target: Gal(b1-3)GalNAc(a1-3)[Fuc(a1-2)]Gal(b1-4)Glc
# In short: as §1
# [37] = biological target: Gal(b1-3)GalNAc(a1-3)[Fuc(a1-2)]Gal(b1-4)GlcNAc
# In short: as §1
binder,measurement,setting,value
B1,glycan array binding signal (z-score),[1],-0.438
same,glycan array binding signal (z-score),[2],-0.218
same,glycan array binding signal (z-score),[3],-0.412
same,glycan array binding signal (z-score),[4],-0.463
same,glycan array binding signal (z-score),[5],-0.518
same,glycan array binding signal (z-score),[6],-0.461
same,glycan array binding signal (z-score),[7],-0.5
same,glycan array binding signal (z-score),[8],0.482
same,glycan array binding signal (z-score),[9],1.37
same,glycan array binding signal (z-score),[10],2.1
same,glycan array binding signal (z-score),[11],0.125
same,glycan array binding signal (z-score),[12],1.04
same,glycan array binding signal (z-score),[13],1.27
same,glycan array binding signal (z-score),[14],-0.077
same,glycan array binding signal (z-score),[15],0.746
same,glycan array binding signal (z-score),[16],2.25
same,glycan array binding signal (z-score),[17],1.09
same,glycan array binding signal (z-score),[18],4.07
same,glycan array binding signal (z-score),[19],1.25
same,glycan array binding signal (z-score),[20],1.01
same,glycan array binding signal (z-score),[21],0.217
same,glycan array binding signal (z-score),[22],0.259
same,glycan array binding signal (z-score),[23],0.221
same,glycan array binding signal (z-score),[24],0.117
same,glycan array binding signal (z-score),[25],4.05
same,glycan array binding signal (z-score),[26],0.815
same,glycan array binding signal (z-score),[27],1.71
same,glycan array binding signal (z-score),[28],3.16
same,glycan array binding signal (z-score),[29],1.88
same,glycan array binding signal (z-score),[30],0.434
same,glycan array binding signal (z-score),[31],0.582
same,glycan array binding signal (z-score),[32],0.38
same,glycan array binding signal (z-score),[33],0.707
same,glycan array binding signal (z-score),[34],1.31
same,glycan array binding signal (z-score),[35],1.06
same,glycan array binding signal (z-score),[36],1.58
same,glycan array binding signal (z-score),[37],2.63
